Several values for one entry are separate records, joined by “and”; a condition that tells them apart may be missing. Equal values may be shown once. Screen size: about 420,000 compounds; about 50,000 (12%) were called active. Inconclusive means that the source gave no clear call. Such entries were picked first, then a sample of the others. The call rests on the fitted dose curve; in most records, active means well fitted inhibition curve with a large enough effect; inconclusive means small, poorly fitted or top-dose-only effect; inactive means flat fitted curve, though single readings scatter. Where the call is inconclusive, the potency comes from a doubtful curve fit.
test: qHTS for Inhibitors of human tyrosyl-DNA phosphodiesterase 1 (TDP1): qHTS in cells in presence of CPT; details: chicken DT40 Tdp1-/-;hTDP1 cells + 20 nM CPT, ATP luminescence, 48 h; activity change, negative = growth inhibition: at 46.2 µM (top of the series); further: nearly all actives have a fitted effect of over 55% in size
Method in brief: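 Chicken DT40 Tdp1-/- cells stably complemented with human TDP1 were seeded at 400 cells/well in medium containing 20 nM camptothecin, exposed to pin-transferred compounds, and grown at 37 °C for at least 48 hr. Viability was read as ATP luminescence.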
On the % scale 0 is the no-effect control and ±100 the full control effect; potency means the concentration at half of the fitted maximal effect; tags describe the fitted curve by direction and shape.

Row | Compound | Potency | activity change, negative = growth inhibition
1 | COc1ccc(C(O)c2ncc(-c3cccc(F)c3)[nH]2)cc1F (stereo not given) | inconclusive: 29.1 µM [inhibitor, single point] | –
2 | CC(=O)c1ccc(Nc2cc(C)nc3nc(Cc4ccc(Cl)cc4)nn23)cc1 | inconclusive: 29.1 µM [inhibitor, single point] | –
3 | O=C(Nc1ccc(Cl)cn1)c1cnn2c1NC(=C1CC1)C=C2C(F)F | inconclusive: 1.12 µM [inhibitor, partial curve] | –
4 | CC(C)C[C@H](NC(=O)c1nc[nH]c1C(=O)NCC(=O)OCc1ccccc1)C(=O)OCc1ccccc1 | inconclusive: 29.1 µM [inhibitor, single point] | –
5 | O=C(CC1NCCc2ccccc21)Nc1cccc(Cl)c1 (stereo not given) | inconclusive: 29.1 µM [inhibitor, partial curve] | –
6 | COc1ccc(CN2CCN(CCC(C)C)C(CCO)C2)cc1Cn1cncn1 (stereo not given) | – | inactive: -1.56%
7 | Cc1ccc(OCCn2cc(Br)c(=O)[nH]c2=O)cc1 | – | inactive: -4.17%
8 | CC(C)c1nn2c(=O)cc(COC(=O)c3ccccc3NC(=O)C3CCCCC3)nc2s1 | inconclusive: 2.91 µM [inhibitor, full curve] | –
9 | CN(C)NC(=O)c1ccc([N+](=O)[O-])s1 | inconclusive: 29.1 µM [inhibitor, single point] | –
10 | CCN(C[C@H]1N[C@@](Cc2ccccc2)(C(=O)OC)[C@H]2C(=O)N(Cc3ccccc3)C(=O)[C@@H]12)C(=O)Nc1ccc(C)cc1 | inconclusive: 23.1 µM [inhibitor, single point] | –
11 | C/C(Cl)=C/Cn1c(SCCN2CCOCC2)nc2c1c(=O)[nH]c(=O)n2C | – | inactive: -15.5%
12 | O=C(Nc1cc2c(cc1C(=O)c1ccccc1Cl)OCCO2)c1ccccc1 | – | inactive: -12.2%
13 | Cc1ccc2nc(N3C(=O)CNC3=S)sc2c1 | active: 14.6 µM | –
14 | Clc1ccc(CSc2nnc(-c3ccncc3)o2)c(Cl)c1 | inconclusive: 2.59 µM [inhibitor, full curve] | –
15 | Cc1ccccc1CN(C)CCS(=O)(=O)c1cc(Cl)ccc1Cl | inconclusive: 29.1 µM [inhibitor, single point] | –
16 | COc1ccc2cc(OC)c(C(=O)N3CCOCC3)cc2c1 | – | inactive: 9.62%
17 | CCn1ncc(Br)c1C(=O)Nc1c(C)nn(Cc2c(F)c(F)c(F)c(F)c2F)c1C | active: 16.4 µM | –
18 | CC/C(=N\NC(=O)c1nnn(-c2nonc2N)c1-c1ccc2c(c1)OCO2)c1ccccc1 | inconclusive: 20.6 µM [inhibitor, single point] | –
19 | CN(C)c1ccc(CNC(=O)c2ccccc2NC(=O)c2nsc3ccccc23)cc1 | active: 16.4 µM | –
20 | COc1cccc(OC)c1C(=O)Nc1cccc(-c2nc3ccccc3[nH]2)c1 | inconclusive: 29.1 µM [inhibitor, single point] | –
21 | CC1Cc2ccccc2N1C(=O)CSc1nnc(-c2ccccc2Cl)o1 (stereo not given) | active: 25.9 µM | –
22 | COc1cc(-c2nc3ccccn3c2NCC2CCCO2)ccc1O (stereo not given) | – | inconclusive: -30.5% [inhibitor]
23 | O=C1CCCN1CCCNCCCn1cnc2c(OCc3ccccc3)ncnc21 | inconclusive: 6.51 µM [inhibitor, single point] | –

Row | Compound | Potency | activity change, negative = growth inhibition
24 | Oc1ccc(Nc2ncnc3scc(-c4ccccc4)c23)cc1 | inconclusive: 8.2 µM [inhibitor, partial curve] | –
25 | CCn1nc(C)c(C(=O)Nc2cc(Oc3ccc(Cl)cc3)cc([N+](=O)[O-])c2)c1C | inconclusive: 25.9 µM [inhibitor, single point] | –
26 | N#C/C(=C\c1c[nH]c2ccccc12)C(N)=O | inconclusive: 29.1 µM [inhibitor, single point] | –
27 | CN(CC(=O)Nc1ccc(Cl)cc1)C(=O)CNC(=O)c1ccc2ccccc2c1 | – | inactive: 15.8%
28 | CC1CN(C(=O)Nc2ccccc2)c2ccccc2-[n+]2ccsc21 (stereo not given) | active: 3.66 µM | –
29 | Cc1ccc(C(=O)Nc2ccccc2C(=O)NCc2ccccc2)cc1 | inconclusive: 29.1 µM [inhibitor, single point] | –
30 | CCOC(=O)C1=C(COC(=O)CCCOc2ccccc2)NC(=O)NC1C (stereo not given) | – | inactive: 10.4%
31 | Cc1cccc(C)c1NC(=O)CN(C)C(=O)c1ccc(OCc2ccccc2)cc1 | inconclusive: 20.6 µM [inhibitor, single point] | –
32 | FC(F)(F)c1cccc(NC(=S)NCC2COc3ccccc3O2)c1 (stereo not given) | inconclusive: 10.3 µM [inhibitor, partial curve] | –
33 | COc1ccc(-c2csc3ncnc(N4CCN(Cc5ccccc5)CC4)c23)cc1 | inconclusive: 23.1 µM [inhibitor, single point] | –
34 | C=CCOc1ccc(CNn2cn[nH]c2=S)cc1 | – | inactive: -3.22%
35 | COCc1nc2ccccc2n1Cc1ccccc1Br | inconclusive: 20.6 µM [inhibitor, single point] | –
36 | O=C(NCC1(N2CCOCC2)CCCCCC1)c1cnn(-c2nccc(-c3ccco3)n2)c1C1CC1 | inconclusive: 16.4 µM [inhibitor, single point] | –
37 | C=CC(COCc1ccccc1)N([C@@H](Cc1ccccc1)C(=O)OC)S(=O)(=O)c1ccccc1Br (stereo not given in full) | inconclusive: 17.8 µM [inhibitor, single point] and inconclusive: 29.1 µM [inhibitor, single point] | –
38 | CCn1cc(C(=O)N(C)c2ccc(C(C)C)cc2)c2cc(OC)c(OC)cc2c1=O | inconclusive: 29.1 µM [inhibitor, single point] | –
39 | COCCn1cc(C(=O)NCc2cccs2)c2c3ccccc3n(C)c2c1=O | – | inactive: -28.2%
40 | COc1ccc(C2CC(=O)c3c(C)nc(N4CCN(Cc5ccccc5)CC4)nc3C2)cc1OC (stereo not given) | active: 11.6 µM | –
41 | Cc1cccc(NS(=O)(=O)c2c(C(=O)N3CCOCC3)c(C)n(C)c2C)c1C | inconclusive: 29.1 µM [inhibitor, single point] | –
42 | CC12CN3CC(C)(CN(C1)C3c1ccc3c(c1)OCO3)C2O (stereo not given) | – | inactive: 23.5%
43 | CCCN(CCC)CC(O)Cn1cc(/C=C/C(=O)c2ccc(Br)cc2)c2ccccc21 (stereo not given) | active: 3.26 µM | –
44 | O=C(CN1CCN(S(=O)(=O)c2cccc(Br)c2)CC1)N1CCCCC1 | – | inactive: -25.2%
45 | Cc1ccc(CNC(=O)CCNS(=O)(=O)c2cccc3nsnc23)cc1 | inactive | –

Source: PubChem BioAssay AID686979 (National Center for Advancing Translational Sciences (NCATS), 2013)
